# Experimental data: the supplement of paper PMC8728848
# The list shows a part of the results.
# Key:
# Experiment in all cases: glycan array binding signal (z-score within array); higher = stronger binding
# Conditions in all cases: glycan notation: IUPAC condensed, linker removed
# [1] = biological target: Neu5Ac(a2-6)Gal(b1-4)GlcNAc(b1-2)Man(a1-3)[Man(a1-6)]Man(b1-4)GlcNAc(b1-4)GlcNAc
# Method in brief: (§1)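 Arrays were curated from the Consortium for Functional Glycomics database, 3228 in total, and kept only where the protein sequence was available. Binding is expressed as a within-array Z-score. This score was averaged across arrays of the same protein sequence at different concentrations or buffers and across linkers, and negative values can be read as non-binding.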
# [2] = biological target: Neu5Ac(a2-6)Gal(b1-4)GlcNAc(b1-2)Man(a1-3)[Neu5Ac(a2-6)Gal(b1-4)GlcNAc(b1-2)Man(a1-6)]Man(b1-4)GlcNAc(b1-4)GlcNAc
# Method in brief: as §1
# [3] = biological target: Neu5Ac(a2-6)Gal(b1-4)GlcNAc(b1-2)Man(a1-3)[Neu5Ac(a2-6)Gal(b1-4)GlcNAc(b1-2)Man(a1-6)]Man(b1-4)GlcNAc(b1-4)[Fuc(a1-6)]GlcNAc
# Method in brief: as §1
# [4] = biological target: Neu5Ac(a2-6)Gal(b1-4)GlcNAc(b1-2)Man(a1-6)Man(b1-4)GlcNAc(b1-4)GlcNAc
# Method in brief: as §1
# [5] = biological target: Neu5Ac(a2-6)Gal(b1-4)GlcNAc(b1-2)Man(a1-6)[Gal(b1-4)GlcNAc(b1-2)Man(a1-3)]Man(b1-4)GlcNAc(b1-4)GlcNAc
# Method in brief: as §1
# [6] = biological target: Neu5Ac(a2-6)Gal(b1-4)GlcNAc(b1-2)Man(a1-6)[GlcNAc(b1-2)Man(a1-3)]Man(b1-4)GlcNAc(b1-4)GlcNAc
# Method in brief: as §1
# [7] = biological target: Neu5Ac(a2-6)Gal(b1-4)GlcNAc(b1-2)Man(a1-6)[Man(a1-3)]Man(b1-4)GlcNAc(b1-4)GlcNAc
# Method in brief: as §1
# [8] = biological target: Neu5Ac(a2-6)Gal(b1-4)GlcNAc(b1-3)Gal(b1-3)GlcNAc
# Method in brief: as §1
# [9] = biological target: Neu5Ac(a2-6)Gal(b1-4)GlcNAc(b1-3)Gal(b1-4)GlcNAc
# Method in brief: as §1
# [10] = biological target: Neu5Ac(a2-6)Gal(b1-4)GlcNAc(b1-3)Gal(b1-4)GlcNAc(b1-3)Gal(b1-4)GlcNAc
# Method in brief: as §1
# [11] = biological target: Neu5Ac(a2-6)Gal(b1-4)GlcNAc(b1-3)Gal(b1-4)[Fuc(a1-3)]GlcNAc(b1-3)Gal(b1-4)[Fuc(a1-3)]GlcNAc
# Method in brief: as §1
# [12] = biological target: Neu5Ac(a2-6)Gal(b1-4)GlcNAc(b1-3)GalNAc
# Method in brief: as §1
# [13] = biological target: Neu5Ac(a2-6)Gal(b1-4)GlcNAc(b1-3)[Neu5Ac(a2-6)Gal(b1-4)GlcNAc(b1-6)]GalNAc
# Method in brief: as §1
# [14] = biological target: Neu5Ac(a2-6)Gal(b1-4)GlcNAc(b1-6)GalNAc
# Method in brief: as §1
# [15] = biological target: Neu5Ac(a2-6)Gal(b1-4)GlcNAc(b1-6)[Gal(b1-3)GlcNAc(b1-3)]Gal(b1-4)Glc
# Method in brief: as §1
# [16] = biological target: Neu5Ac(a2-6)Gal(b1-4)GlcNAc6S
# Method in brief: as §1
# [17] = biological target: Neu5Ac(a2-6)GalNAc
# Method in brief: as §1
# [18] = biological target: Neu5Ac(a2-6)GalNAc(b1-4)GlcNAc
# Method in brief: as §1
# [19] = biological target: Neu5Ac(a2-6)GalNAc(b1-4)GlcNAc6S
# Method in brief: as §1
# [20] = biological target: Neu5Ac(a2-6)GlcNAc(b1-4)GlcNAc
# Method in brief: as §1
# [21] = biological target: Neu5Ac(a2-6)GlcNAc(b1-4)GlcNAc(b1-4)GlcNAc
# Method in brief: as §1
# [22] = biological target: Neu5Ac(a2-8)Neu5Ac
# Method in brief: as §1
# [23] = biological target: Neu5Ac(a2-8)Neu5Ac(a2-3)Gal(b1-3)GalNAc(b1-4)[Neu5Ac(a2-8)Neu5Ac(a2-3)]Gal(b1-4)Glc
# Method in brief: as §1
# [24] = biological target: Neu5Ac(a2-8)Neu5Ac(a2-3)Gal(b1-4)Glc
# Method in brief: as §1
# [25] = biological target: Neu5Ac(a2-8)Neu5Ac(a2-3)[Gal(b1-3)GalNAc(b1-4)]Gal(b1-4)Glc
# Method in brief: as §1
# [26] = biological target: Neu5Ac(a2-8)Neu5Ac(a2-3)[GalNAc(b1-4)]Gal(b1-4)Glc
# Method in brief: as §1
# [27] = biological target: Neu5Ac(a2-8)Neu5Ac(a2-8)Neu5Ac
# Method in brief: as §1
# [28] = biological target: Neu5Ac(a2-8)Neu5Ac(a2-8)Neu5Ac(a2-3)Gal(b1-4)Glc
# Method in brief: as §1
# [29] = biological target: Neu5Ac(a2-8)Neu5Ac(a2-8)Neu5Ac(a2-3)[GalNAc(b1-4)]Gal(b1-4)Glc
# Method in brief: as §1
# [30] = biological target: Neu5Ac(a2-8)Neu5Ac(a2-8)Neu5Ac(a2-8)Neu5Ac(a2-3)[GalNAc(b1-4)]Gal(b1-4)Glc
# Method in brief: as §1
# [31] = biological target: Neu5Ac(b2-6)Gal(b1-4)GlcNAc
# Method in brief: as §1
# [32] = biological target: Neu5Ac(b2-6)GalNAc
# Method in brief: as §1
# [33] = biological target: Neu5Ac9Ac(a2-3)Gal(b1-3)GlcNAc
# Method in brief: as §1
# [34] = biological target: Neu5Ac9Ac(a2-3)Gal(b1-4)GlcNAc
# Method in brief: as §1
# [35] = biological target: Neu5Ac9Ac(a2-6)Gal(b1-4)GlcNAc
# Method in brief: as §1
# [36] = biological target: Neu5Gc(a2-3)Gal(b1-3)GlcNAc
# Method in brief: as §1
# [37] = biological target: Neu5Gc(a2-3)Gal(b1-3)[Fuc(a1-4)]GlcNAc
# Method in brief: as §1
# [38] = biological target: Neu5Gc(a2-3)Gal(b1-4)Glc
# Method in brief: as §1
# [39] = biological target: Neu5Gc(a2-3)Gal(b1-4)GlcNAc
# Method in brief: as §1
# [40] = biological target: Neu5Gc(a2-3)Gal(b1-4)[Fuc(a1-3)]GlcNAc
# Method in brief: as §1
# [41] = biological target: Neu5Gc(a2-6)Gal(b1-4)GlcNAc
# Method in brief: as §1
# [42] = biological target: Neu5Gc(a2-6)GalNAc
# Method in brief: as §1
# [43] = biological target: Neu5Gc(b2-6)Gal(b1-4)GlcNAc
# Method in brief: as §1
binder,measurement,setting,value
"ArathEULS3 (Arabidopsis thaliana), Q945P1 (protein) MEHHHQHHRHHQRDDGEDDRQSFGVPPPHVDAPPQPHGLYQSQPHFDPYAPTPQAPAPYRSETQFEPHAPPPYRSEPYFETPAPPPSFGHVSHVGHQSPNESYPPEHHRYGGYQQPSNSLLESHGDHSGVTHVAHHSSNQPQSSSGVYHKPDENRLPDNLAGLAGRATVKVYSKAEPNYNLTIRDGKVILAPADPSDEAQHWYKDEKYSTKVKDADGHPCFALVNKATGEAMKHSVGATHPVHLIRYVPDKLDESVLWTESKDFGDGYRTIRMVNNTRLNVDAYHGDSKSGGVRDGTTIVLWDWNKGDNQLWKIFPFILEQKLISEEDLNSAVDHHHHHH",glycan array binding signal (z-score),[1],-0.158
same,glycan array binding signal (z-score),[2],-0.066
same,glycan array binding signal (z-score),[3],-0.433
same,glycan array binding signal (z-score),[4],-0.277
same,glycan array binding signal (z-score),[5],-0.251
same,glycan array binding signal (z-score),[6],-0.089
same,glycan array binding signal (z-score),[7],-0.31
same,glycan array binding signal (z-score),[8],-0.157
same,glycan array binding signal (z-score),[9],-0.329
same,glycan array binding signal (z-score),[10],-0.178
same,glycan array binding signal (z-score),[11],-0.049
same,glycan array binding signal (z-score),[12],-0.213
same,glycan array binding signal (z-score),[13],-0.327
same,glycan array binding signal (z-score),[14],0.018
same,glycan array binding signal (z-score),[15],-0.239
same,glycan array binding signal (z-score),[16],-0.344
same,glycan array binding signal (z-score),[17],-0.43
same,glycan array binding signal (z-score),[18],-0.302
same,glycan array binding signal (z-score),[19],-0.282
same,glycan array binding signal (z-score),[20],-0.135
same,glycan array binding signal (z-score),[21],-0.128
same,glycan array binding signal (z-score),[22],-0.14
same,glycan array binding signal (z-score),[23],-0.033
same,glycan array binding signal (z-score),[24],-0.187
same,glycan array binding signal (z-score),[25],-0.098
same,glycan array binding signal (z-score),[26],-0.282
same,glycan array binding signal (z-score),[27],-0.093
same,glycan array binding signal (z-score),[28],-0.222
same,glycan array binding signal (z-score),[29],0.27
same,glycan array binding signal (z-score),[30],-0.38
same,glycan array binding signal (z-score),[31],-0.033
same,glycan array binding signal (z-score),[32],-0.069
same,glycan array binding signal (z-score),[33],-0.228
same,glycan array binding signal (z-score),[34],-0.232
same,glycan array binding signal (z-score),[35],-0.078
same,glycan array binding signal (z-score),[36],-0.174
same,glycan array binding signal (z-score),[37],-0.263
same,glycan array binding signal (z-score),[38],1.72
same,glycan array binding signal (z-score),[39],-0.247
same,glycan array binding signal (z-score),[40],0.101
same,glycan array binding signal (z-score),[41],-0.271
same,glycan array binding signal (z-score),[42],-0.261
same,glycan array binding signal (z-score),[43],-0.251
